To fix the notation:
B1: LINE1-mini (parent)
chain: GGCAGAGCUCAACACAGCGUGGCAAAGUGGCUGUGGCUAGACUGCC

Here are results for 167 variants from the RNAGym collection of RNA variant scans (doi:10.7554/elife.90254).

The source gives no read counts; variants with many changes may rest on few reads.

Variants of B1 are the subject of this series. Nature of the series: self-cleavage, relative activity (ratio to wild type); higher = more cleavage; in vitro, sequencing; the parent is a self-cleaving ribozyme.
Consider G2A G27U G44C, for which the self-cleavage is 0.32.

Consider A4C G17A U20A G21C, for which the self-cleavage came out at 0.03.

In the case of C8G G19U G21U G30U U38G C46A, the self-cleavage was 0.01.

Consider A12G G17A G22A G27C G40C, for which the self-cleavage was 0.02.

Turning to C3A G22C C23G, the self-cleavage worked out at 0.23.

Regarding A4G U9G A11C, the self-cleavage is 0.

With G5U C15U A16U, the self-cleavage was determined as 0.07.

On to A16U C18U G30U A39G, for which the self-cleavage worked out at 0.01.

G1A C15G C18A U28C G30C C37A U38G: the self-cleavage came out at 0.

Consider G1A G30A G44U, for which the self-cleavage was found to be 0.14.

Regarding C13G G21U U28A, the self-cleavage turned out to be 0.21.

As to A11U C18U C46A, the self-cleavage stood at 0.09.

As to C3U C10U A24U, the self-cleavage came to 0.13.

Turning to G1U A24C G33A, the self-cleavage was found to be 0.05.

As for G1U C13U C31A U32A U34C G40C, the self-cleavage was determined as 0.06.

Regarding C18A G33U G36A, the self-cleavage was 0.06.

Take G2U C13A C15U A26C: the self-cleavage is 0.01.

With U9A C15G G30U U43A, the self-cleavage was 0.19.

G1A G19C G22C A39G: the self-cleavage stood at 0.04.

For G5U U9A U38A, the self-cleavage is 0.1.

Turning to C8U C13A U38A, the self-cleavage was found to be 0.5.

Consider G1C C3G G7C G19A G22C C23U, for which the self-cleavage stood at 0.08.

For G7U U9C A11C, the self-cleavage came to 0.

As for G5C C15A U20G C37A, the self-cleavage was 0.03.

Take C8A C18U G19C G29U G36A: the self-cleavage came to 0.1.

Regarding G21U C37G G40C, the self-cleavage came out at 0.08.

With C8U G17A C31G, the self-cleavage amounted to 0.09.

As for A16G C37A C45G, the self-cleavage turned out to be 0.21.

Take G5A A14U G36U C42G: the self-cleavage came to 0.03.

As to A11C C15A G29U C46U, the self-cleavage came out at 0.01.

Turning to A6C G19C G44A, the self-cleavage was determined as 0.06.

C3G A6G U34C: the self-cleavage was found to be 0.06.

Turning to U20A G22U A25C G40U, the self-cleavage is 0.14.

G7U U9A C15A: the self-cleavage was found to be 0.06.

With G7U C13G G21A C37G C42U, the self-cleavage is 0.08.

Take C10A A11U A25U: the self-cleavage was 0.

As to C13U G17A G19A U28A C42U, the self-cleavage was determined as 0.15.

Consider G2A G5C C10A, for which the self-cleavage was found to be 0.02.

Turning to A25U A26G C37G, the self-cleavage was 0.04.

On to G36A G44U C46A, for which the self-cleavage was 0.

On to C8A G17C C18A C31G, for which the self-cleavage amounted to 0.06.

G17U G22U C23A U34A: the self-cleavage is 0.04.

Regarding A11C U20C G29U, the self-cleavage was determined as 0.01.

C31A A39C G40A: the self-cleavage came out at 0.15.

Turning to G7A C23U G29U, the self-cleavage was found to be 0.03.

With G5A G27C G44U, the self-cleavage is 0.43.

On to A4C U9G C31G A39C, for which the self-cleavage worked out at 0.02.

In the case of G2C G7U C31A, the self-cleavage is 0.08.

Take G1A A6U A12U G19A U32G: the self-cleavage is 0.07.

In the case of C3U U34G U38A, the self-cleavage was 0.07.

For the variant C13U A25U G36A G40U G44U, the self-cleavage came to 0.03.

Take G19A A24C C31U: the self-cleavage worked out at 0.56.

Regarding G2U G7U U43C C45G, the self-cleavage stood at 0.14.

On to G1U A26C G29C, for which the self-cleavage is 0.45.

For G2U A6U U20A C31A, the self-cleavage was found to be 0.06.

C10A G30A G36U: the self-cleavage was determined as 0.02.

For the variant U38A G40U C42A U43C, the self-cleavage came to 0.22.

For the variant C23G G30U A39C, the self-cleavage worked out at 0.09.

As to G5C A16U U43A, the self-cleavage is 0.04.

For the variant C3A G17A A26U U32A, the self-cleavage turned out to be 0.06.

For C10G A16G G35C C45A C46U, the self-cleavage worked out at 0.01.

Turning to A6C G27A G33A G35A G40U, the self-cleavage is 0.04.

On to U28G U34G G36U, for which the self-cleavage is 0.02.

G7U A12U G29U G33A: the self-cleavage was determined as 0.04.

With A4U C8A U9G C18U A25G U28G, the self-cleavage stood at 0.23.

Turning to A11U A14G C15G, the self-cleavage came out at 0.02.

A12G U28G C37U: the self-cleavage worked out at 0.02.

In the case of A14G G19U G40C U43A, the self-cleavage came to 0.05.

For the variant C3G G21U C31G, the self-cleavage was found to be 0.04.

Take C3G C10U C15U U28A G33A: the self-cleavage is 0.11.

Turning to C3G G17U U34G G36C, the self-cleavage was determined as 0.05.

Take G22U U28G C37A A39C: the self-cleavage was determined as 0.02.

As to G30A U32G G33A A39U, the self-cleavage amounted to 0.05.

For C8U A14G C23U C42G, the self-cleavage stood at 0.03.

Regarding G2A U32A U34C C42A, the self-cleavage came out at 0.05.

Regarding A6G G35U U43G, the self-cleavage was 0.03.

On to G2U U9C G35U G36C G40A, for which the self-cleavage was 0.

Take C3A G7C G17A G19C: the self-cleavage was 0.04.

In the case of C13U A14U G35A, the self-cleavage was 0.12.

Take A11G U34A G44C: the self-cleavage worked out at 0.03.

Turning to C3U A4U G17U C37G U38A, the self-cleavage is 0.02.

On to C13U C31U G33U, for which the self-cleavage was determined as 0.02.

Take G5C A16U G17U: the self-cleavage was 0.09.

As to G5U A26C C37G G40U, the self-cleavage was 0.07.

Turning to G1C G2C C42G, the self-cleavage stood at 0.02.

With G7A C13A C18A U32G, the self-cleavage stood at 0.04.

Take G36C A39G A41G C46G: the self-cleavage turned out to be 0.01.

With C15U A25U U28G, the self-cleavage was determined as 0.14.

Consider A4C G7C U9C C13A G36C, for which the self-cleavage was determined as 0.02.

For A6C G22C G29U C31A G40U, the self-cleavage came to 0.02.

With G17U G22U C45U, the self-cleavage was 0.25.

Turning to C8A C15G G35U C46A, the self-cleavage was 0.13.

For the variant U9G U28C C46G, the self-cleavage is 0.03.

For the variant C13U G22A G30C C31A G44U, the self-cleavage came out at 0.03.

As for A4U A14U A41U, the self-cleavage is 0.13.

On to C3G G5A A11G, for which the self-cleavage turned out to be 0.06.

Consider C10U C13U A16G C23A G40A, for which the self-cleavage worked out at 0.02.

Regarding A4U A16G G19C A24G C37A, the self-cleavage is 0.01.

G1A G44A C45U C46A: the self-cleavage stood at 0.13.

Turning to C10U A24C U38G C45U, the self-cleavage came to 0.01.

Take U9G C15A G21A U34G C37G: the self-cleavage is 0.05.

On to G2U A16G C23U, for which the self-cleavage amounted to 0.01.

A6U U9A C13A A24C: the self-cleavage worked out at 0.07.

As for A4C A14G G40C, the self-cleavage was 0.08.

For C3G A26G U34A, the self-cleavage was 0.3.

In the case of C8G U20G G29C, the self-cleavage is 0.02.

For C15A G33A C37U A41U, the self-cleavage was found to be 0.17.

Turning to G7C U20C G44A C46U, the self-cleavage was found to be 0.04.

As for G2A C10A G36A C42G, the self-cleavage was 0.04.

For U28A G44U C46G, the self-cleavage was 0.1.

C10A U32C C46A: the self-cleavage is 0.03.

Take G1U A16U A24G C46A: the self-cleavage is 0.02.

Regarding C15U G35U C42A, the self-cleavage is 0.05.

For the variant C13A C23A A24U A41U, the self-cleavage was 0.11.

As for G30A G44C C45G, the self-cleavage amounted to 0.06.

As for A16U G22A A25U G27A A39C A41G, the self-cleavage was 0.27.

As for C3A G5A U20C G30U U38C G40A C42G, the self-cleavage came to 0.05.

Take G1U U34C G36U: the self-cleavage stood at 0.07.

On to C3U C13A U38C, for which the self-cleavage came to 0.11.

As for C13A G21C C23A G29U C45A, the self-cleavage was determined as 0.04.

A4U G7C A16G G19U A25C A41U: the self-cleavage is 0.05.

With G17U G22C C45A, the self-cleavage came out at 0.12.

Regarding C15G A26C G36C C37A, the self-cleavage came to 0.02.

A12U A16C G19C G33C A39U A41G: the self-cleavage was found to be 0.

In the case of G5A A6G G29A C31U U34G, the self-cleavage worked out at 0.03.

As to U9G A12C A16C A41C C42G, the self-cleavage came out at 0.01.

For the variant G2U A6C C18U C23U, the self-cleavage came to 0.02.

For A14G C31G U43A C45G, the self-cleavage worked out at 0.01.

With G2A A25C G35C C46A, the self-cleavage turned out to be 0.07.

As for C3A U28G C45A, the self-cleavage was 0.25.

Turning to C3U G7A C8G G17A G22C C23A A41C, the self-cleavage amounted to 0.06.

Consider C8G G30U G36A, for which the self-cleavage is 0.1.

Consider C8G U9A A11U, for which the self-cleavage was found to be 0.

C3G A4C C13U G17A G40A: the self-cleavage came to 0.25.

In the case of G5C A24C C31G C37G U38G C42U, the self-cleavage was 0.

Regarding U32A C42A U43A, the self-cleavage came out at 0.12.

In the case of C13G G27A G29A U38A, the self-cleavage was 0.23.

Consider C18G G22A U32G, for which the self-cleavage amounted to 0.05.

In the case of C3G C8A A39G A41C C45A, the self-cleavage was found to be 0.06.

As for A6G G27U G35A, the self-cleavage was found to be 0.16.

For G35C G40A C46G, the self-cleavage turned out to be 0.12.

A14U G19U C46A: the self-cleavage is 0.11.

Regarding G1U G5C G29C C37A, the self-cleavage worked out at 0.04.

G30U U32G G35A G44A: the self-cleavage was 0.04.

Take C10G A26U G36U: the self-cleavage was 0.02.

For C3A C8G U34C, the self-cleavage worked out at 0.06.

For the variant A6C G29C C42U, the self-cleavage was 0.04.

As to C13G A16G U28A, the self-cleavage is 0.02.

Regarding C3A G7C G21C, the self-cleavage was 0.04.

As for A4G A6U G7A U20A G30A C37A, the self-cleavage turned out to be 0.14.

Regarding G5C U43A C46G, the self-cleavage was 0.04.

On to U9C U28A G29A C37U C42A, for which the self-cleavage was determined as 0.01.

G2A A16U U43C: the self-cleavage was 0.03.

C13G A14U C15A G17C: the self-cleavage was 0.05.

As to C8U G22U G30C G36A U43G, the self-cleavage amounted to 0.14.

On to A4C G7C A24U A26U C37A, for which the self-cleavage turned out to be 0.19.

Turning to C3G C23A A25G C31A U38C, the self-cleavage was determined as 0.08.

As for A4C U9C G22A A26C, the self-cleavage is 0.

Take G7A C18G G40U: the self-cleavage was 0.19.

Consider C3G A4C C23U, for which the self-cleavage turned out to be 0.35.

On to A26U U28C C31U G33C U38A, for which the self-cleavage stood at 0.08.

Turning to G22U G33A G40U, the self-cleavage was 0.3.

Regarding C10U G27C G29U U43A, the self-cleavage is 0.06.

In the case of C10G C31G G35U G40U, the self-cleavage is 0.

C3U C13U G17C A25G G30U G40U: the self-cleavage was 0.05.

As for C10G C15A A24C U32G, the self-cleavage was determined as 0.01.

Take G2C A12U G19A C46A: the self-cleavage turned out to be 0.05.
